Experimental data taken from article PMC4336329 (PLoS ONE, 2015).
Among all 310,000 compounds or so, about 2,200 (0.71%) showed an effect of 50% or more. The effect is printed as a negative number. The list shows a part of the results.

Target: human ether-à-go-go-related gene (hERG) potassium channel (human, UniProt Q12809)
Assay: primary screen, population patch clamp on CHO cells stably expressing hERG

human ether-à-go-go-related gene (hERG) potassium channel, sequence (Q12809 whole entry, looked up): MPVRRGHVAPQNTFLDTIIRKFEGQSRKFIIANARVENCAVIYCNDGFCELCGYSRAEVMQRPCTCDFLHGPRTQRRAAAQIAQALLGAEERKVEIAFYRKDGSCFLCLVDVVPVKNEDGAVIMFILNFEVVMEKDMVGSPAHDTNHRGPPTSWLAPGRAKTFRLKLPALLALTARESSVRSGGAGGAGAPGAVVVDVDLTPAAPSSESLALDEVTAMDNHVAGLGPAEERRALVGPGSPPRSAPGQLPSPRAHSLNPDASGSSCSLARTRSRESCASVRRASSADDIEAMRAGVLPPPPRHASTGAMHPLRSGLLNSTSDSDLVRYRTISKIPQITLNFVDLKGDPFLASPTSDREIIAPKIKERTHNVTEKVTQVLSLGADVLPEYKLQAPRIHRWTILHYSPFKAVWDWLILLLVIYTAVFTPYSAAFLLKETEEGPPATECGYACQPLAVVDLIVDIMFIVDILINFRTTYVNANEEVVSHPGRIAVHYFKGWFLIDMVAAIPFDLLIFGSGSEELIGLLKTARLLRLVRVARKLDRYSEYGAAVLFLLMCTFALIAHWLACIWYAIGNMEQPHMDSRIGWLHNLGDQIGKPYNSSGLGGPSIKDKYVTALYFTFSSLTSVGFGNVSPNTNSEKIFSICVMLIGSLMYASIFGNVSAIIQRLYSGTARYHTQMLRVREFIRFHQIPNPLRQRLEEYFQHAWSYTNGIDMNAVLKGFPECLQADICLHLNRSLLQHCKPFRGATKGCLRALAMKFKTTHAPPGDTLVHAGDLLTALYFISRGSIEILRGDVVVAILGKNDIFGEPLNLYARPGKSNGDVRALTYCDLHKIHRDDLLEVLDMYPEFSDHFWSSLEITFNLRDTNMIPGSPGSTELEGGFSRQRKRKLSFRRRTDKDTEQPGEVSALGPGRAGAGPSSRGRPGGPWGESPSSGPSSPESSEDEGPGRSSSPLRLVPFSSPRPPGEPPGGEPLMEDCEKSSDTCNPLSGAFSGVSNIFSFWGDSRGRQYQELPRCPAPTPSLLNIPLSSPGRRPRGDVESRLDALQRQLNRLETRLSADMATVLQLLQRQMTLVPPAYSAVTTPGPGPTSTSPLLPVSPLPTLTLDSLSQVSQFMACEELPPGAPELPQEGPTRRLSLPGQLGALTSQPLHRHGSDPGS

SMILES | hERG current change (%, negative = inhibition) at 1uM [%]
Cc1[nH]c2ccccc2c1/C=N/NC(=O)CNC(=O)Cc1ccccc1 | 9.86
CCC1Oc2ccc(C)cc2N(CC(=O)NCCN2C(C)CCCC2C)C1=O (centres unmarked) | 5.56
COc1ccc(NC2=NC(=S)N(c3ccc(C)cc3)C23CCCCC3)cc1 | 16.5
COc1ccc(-n2ncc3c(N4CCC(C)CC4)ncnc32)cc1 | 2.56
CCCCCCn1c(=O)[nH]c2c(c1=O)CCC2 | 11.6
COc1ccc(C2(C)NC(=O)N(CC(=O)Nc3ccc4c(c3)CCC4)C2=O)cc1OC (centres unmarked) | 5.38
CC(CCc1ccco1)NC(=O)CCc1nnc2ccc(NCc3ccc(Cl)cc3)nn12 (centres unmarked) | 5.21
CCCCc1nc2sc3c(c2c(=O)[nH]1)CCC3 | 11.5
Cc1cc(Nc2cc(C)on2)n2ncnc2n1 | 7.29
CC(C)(C)c1ccc(CSc2nnc(-c3ccccn3)n2Cc2ccco2)cc1 | 0.349
Cc1nc(C)c(C(=O)NCCC(c2ccccc2)c2ccccc2)o1 | 5.05
COC(=O)c1c(C(=O)OC)c2cc(C)ccn2c1Cl | -5.26
CCOC(=O)C1(Cc2cccc(Cl)c2)CCCN(C(=O)C(C)(C)C)C1 (centres unmarked) | 13.2
COc1ccc(-c2nc3ncnn3cc2C)cc1F | 8.83
c1ccc(-n2nnnc2OCCOc2nnnn2-c2ccccc2)cc1 | 3.62
O=C(c1cc(COc2cccc(C(F)(F)F)c2)on1)N1CCC(c2ccccc2)CC1 | 6
O=C(COC(=O)COc1ccc2ccccc2c1)NCC(F)(F)F | 1.83
CCc1cc2c(=O)c(-c3cnn(-c4ccccc4)c3)c(C(F)(F)F)oc2c(CN(C)C)c1O | 10.7
COc1ccc(N(Cc2nnc3n2CCCCC3)C(=O)Nc2ccccc2)cc1 | 7.17

SMILES | hERG current change (%, negative = inhibition) at 1uM [%]
CCC1Oc2ccc(C)cc2N(CC(=O)NCc2ccco2)C1=O (centres unmarked) | 7.37
COc1ccc(C2(CNC(=O)c3ccc(Br)o3)CCOCC2)cc1 | 13.5
CC(=O)c1c(C)[nH]c(C(=O)NCc2cccc(Cl)c2)c1C | 10.4
COc1ccc(C(=O)Nc2ccc(N3CCN(C(=O)c4ccccc4C)CC3)cc2)cc1 | 9.54
CC1CN(S(=O)(=O)c2ccc(C(=O)Nc3nccs3)cc2)CC(C)O1 (centres unmarked) | 12.1
Cc1ccc(OCCNC(=O)c2cc(=O)[nH]c3ccccc23)cc1 | 10.6
CC(=O)Nc1cccc(OCCCNC(=O)c2cccc3ccccc23)c1 | 16.5
Cc1cc(C)nc(N2CCC(C(=O)O)CC2)n1 | -1.09
CC(C)(C)c1cc(C(=O)NNc2ccc(OC(F)(F)F)cc2)n(Cc2ccccc2)n1 | 12.2
COc1ccc([C@@H]2[C@@H]3C(=O)N(C(C)(C)C)C(=O)[C@@H]3[C@]3(Cc4ccccc4)C(=O)N(c4ccc(OC)cc4)C(=O)N23)cc1 | 19.1
Cc1cc(C)nc(N2CCCC(C(=O)NC(C)C)C2)n1 (centres unmarked) | 4.2
COc1cccc(CN2CCN(Cc3cc(OC)c(OC)cc3[N+](=O)[O-])CC2)c1.O=C(O)C(=O)O | -18.5
CCOC(=O)Cc1csc(NS(=O)(=O)c2cc(Cl)ccc2Cl)n1 | 17.4
O=C(Cn1c(C(F)(F)F)nc2ccccc21)N/N=C/c1ccco1 | 7.11
Cc1nnc(N2CCCC(C(=O)NCc3ccccc3F)C2)c2nn(-c3ccccc3)c(C)c12 (centres unmarked) | -3.35
CC(=O)Nc1c(-c2ccccc2)nc2cc(C)ccn12 | 11.7
COc1ccc(CCN(C)C(=O)c2oc3ccccc3c2C)cc1OC | 11.3
Cc1cccc(CCNC(=O)C2CCN(S(=O)(=O)N3CCOCC3)CC2)c1 | 10.3
Cc1c(C(=O)N2CCOCC2)c(S(=O)(=O)Nc2ccc(OC(F)(F)F)cc2)c(C)n1C | 4.73

SMILES | hERG current change (%, negative = inhibition) at 1uM [%]
COc1ccccc1CNC(=O)CCC(=O)N1CCOc2ccc(Cl)cc21 | 10.9
O=C(Cn1ncc2c3ccccc3n(Cc3ccccc3)c2c1=O)NC1CCCC1 | 8.9
COc1ccc(C(CNC(=O)c2oc3ccc(C)cc3c2C)N2CCCCC2)cc1 (centres unmarked) | 11.2
COc1cc(S(=O)(=O)n2nc(C)cc2C)c(OC)cc1Cl | 4.33
O=C1CCN(C(=O)Nc2ccccc2Cl)N1 | 12
Cc1ccccc1OCC(=O)N1N=C(C(F)(F)F)CC1(O)C(C)(C)C (centres unmarked) | 12.2
CCOC(=O)N1CCC(=NNC(=O)c2ccc(O)cc2)CC1 | 3.38
O=C(c1ccccc1NS(=O)(=O)c1ccc2c(c1)OCCO2)N1CCOCC1 | 10.6
O=C(CCC(=O)N1CCN(S(=O)(=O)c2cccc(F)c2)CC1)c1cccs1 | 10.1
CC(NC(=O)C1(c2cccs2)CCOCC1)c1ccccc1 (centres unmarked) | 14.1
COc1ccc(-c2nc(-c3ccccc3)c(-c3cc([N+](=O)[O-])ccc3C)[nH]2)cc1O | 9.05
COc1ccccc1NC(=O)C(C)OC(=O)CSCC(=O)Nc1cc(C)on1 (centres unmarked) | 8.19
CCOC(=O)C1CCN(Cc2cc(C(C)(C)C)c(O)c(C(C)(C)C)c2)CC1 | -14
O=C(OCCCN=C1NS(=O)(=O)c2ccccc21)c1ccccc1F | 4.96
COc1ccccc1C(=O)Nc1nc2cc3c(cc2s1)OCO3 | 17.1
O=C(c1ccc(F)cc1)C1CCN(C(=O)Nc2ccc(F)cc2)CC1 | -10.8
CCN(CC)C(=O)C(=O)N/N=C/c1ccc(C(=O)O)cc1 | 8.42
Cc1cccc(NS(=O)(=O)c2nnc(NC(=O)C3CCCCC3)s2)c1 | 11.7
